# Out of some 45,000 compounds screened, about 200 (0.44%) were called active. Not shown: some 7% with an inconclusive outcome. Calls follow the shape of the dose curve; as a rule, active = well fitted activation curve with a large enough effect; inconclusive = small, poorly fitted or top-dose-only effect; inactive = no such curve, though single readings can be large or run the other way. This is one part of the list.
# Experiment: qHTS of TDP-43 Inhibitors: NCGC Sytravon Library Screen; also: 0% is about no effect; nearly all actives have a fitted effect of over 55% in size
# Conditions: yeast TDP-43 toxicity rescue, BacTiter-Glo growth, 24 h; series mostly up to 46.1 µM; growth rescue (activation): at the top concentration
# Method in brief: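 TDP-43-expressing yeast, pregrown in raffinose, seeded at OD600 0.02 in galactose medium with compound for 24 hr at 30 deg C. Growth read by BacTiter-Glo luminescence, so rescue of toxicity appears as activation.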
row,Structure (SMILES),growth rescue (activation)
1,CCCCOc1ccc(N2C(=O)CC(NCc3ccncc3)C2=O)cc1 (stereo not given),inactive: -0.278%
2,Cc1nn(CC(=O)NCCN2CCOCC2)c(C)c1[N+](=O)[O-],inactive: 4.18%
3,O=C(NCC1CCCN(C(=O)c2cscn2)C1)c1ccccc1Cl (stereo not given),inactive: -0.724%
4,CC(=O)Nc1ccc(SCC(=O)Nc2ccccc2N2CCOCC2)cc1,inactive: -0.45%
5,O=C(NCCCc1ccccc1)[C@@H]1Cc2ccccc2CN1,inactive: -7.85%
6,COc1ccc(S(=O)(=O)NC(CCSC)C(=O)NC2CCCCC2)cc1 (stereo not given),inactive: 5.35%
7,O=C(CNS(=O)(=O)c1ccc(Br)s1)NCCc1ccc(Cl)cc1,inactive: -5.74%
8,CCCC(=O)Nc1c(-c2ccccc2)c(=O)c(C)nn1-c1ccccc1,inactive: 7.59%
9,COc1cc(OC)c(NC(=O)Cn2cnc3sc(C)c(S(=O)(=O)N4CCOCC4)c3c2=O)cc1Cl,inactive: 10.7%
10,COc1cc(/C=C/C(=O)OCC(=O)NCCC2=CCCCC2)cc(OC)c1OC,inactive: 27.4%
11,COC(=O)c1ccccc1NC(=O)Nc1ccc(C)cn1,inactive: 5.93%
12,CC(=O)Nc1ccc(S(=O)(=O)Nc2cc3c(cc2C(C)=O)OCO3)cc1,inactive: 6.99%
13,COC(=O)C(=O)/C=C(\O)c1c(C)cc(C)cc1C,inactive: -9.21%
14,CCCn1c(SCC(=O)Nc2ccc(C)c(S(=O)(=O)N3CCOCC3)c2)n[nH]c1=O,inactive: -17.8%
15,O=C(Nc1ccc2[nH]c(=O)[nH]c2c1)C(F)(F)F,inactive: 2%
16,Cc1ccc(C(C(=O)NC2CCCCC2)N(Cc2cccnc2)C(=O)c2csnn2)cc1 (stereo not given),inactive: -6.63%
17,COc1cccc(CC2(CO)CCCN(Cc3cc4ccccc4[nH]3)C2)c1 (stereo not given),inactive: 10.4%
18,COc1ccccc1OCC(=O)n1cc(C(=O)c2cc(Cl)cc(Cl)c2O)cn1,inactive: -0.342%
19,Cc1ccnc(-n2sc3ccccc3c2=O)n1,inactive: -92.9%
20,Cc1ccc(OCCCCNC2CCCC(C)C2C)c(C)c1 (stereo not given),inactive: -2.56%
21,CC[C@@H](C)[C@H](NC(=O)C1CCN(C(=O)[C@@H](NS(=O)(=O)c2ccc(C)cc2)C(C)C)CC1)C(=O)O,inactive: -1.42%
22,CNC(=O)Cn1nc(-c2ccc(C)cc2)c2ccccc2c1=O,inactive: -1.22%
23,CCCS(=O)(=O)N1CCCC(C(=O)NCCN(CC)c2ccccc2)C1 (stereo not given),inactive: -3.46%
24,CC1(NC(=O)Nc2cccc(Br)c2)CCS(=O)(=O)C1 (stereo not given),inactive: 19.4%
25,Cc1cc(Nc2ccc(Cl)cc2)nc(NCc2ccccc2)n1,inactive: 11.2%
26,Cc1cnc(C(=O)OCC(=O)N(Cc2ccccc2)C(C)(C)C)cn1,inactive: 24.2%
27,Cc1ccc(N(C(=O)c2csnn2)C(C(=O)NCc2ccccc2)c2cccnc2)cc1 (stereo not given),inactive: -25.1%

row,Structure (SMILES),growth rescue (activation)
1,COCCn1c(C)cc(C(=O)COC(=O)c2cncc(Br)c2)c1C,inactive: 17.8%
2,CC(=O)Nc1ccc(N(C(=O)Cn2nnc3ccccc32)C(C(=O)NC2CCCC2)c2ccc(O)c(O)c2)cc1 (stereo not given),inactive: -7.15%
3,CCCCN(C)C(=O)c1ccc(Nc2nc(C(N)CCc3ccccc3)cs2)nc1 (stereo not given),inactive: -0.635%
4,COc1cc2c(cc1NC(=S)Nc1cccc3ccccc13)oc1ccccc12,inactive: 25.4%
5,CC1=CCC(C(=O)O)C(C(=O)Nc2ccc(-c3nc4ccc(C)cc4s3)cc2)C1 (stereo not given),inactive: 16.7%
6,CNC(=S)NNc1nc(N2CCOCC2)nc(N2CCOCC2)n1,inactive: 10.8%
7,COC(=O)c1cccc(C(=O)N2CCCC(C(=O)c3cc(F)ccc3F)C2)c1 (stereo not given),inactive: 27.6%
8,NC(=O)c1ccccc1NC(=O)CSc1cn[nH]n1,inactive: 11.1%
9,CCC1C/C(=C\c2cccnc2)C(=O)/C(=C/c2cccnc2)C1 (stereo not given),inactive: -81.2%
10,CCN1CCN(CCNC(=O)c2ccc3c(c2)N(Cc2ccc(F)cc2)C(=O)/C(=C/c2ccccc2)S3)CC1,inactive: -59.6%
11,Cc1ccc(N(C(=O)CS(=O)CC(=O)Nc2ccc(F)cc2)C(C(=O)NC2CCCCC2)c2ccco2)cc1 (stereo not given),inactive: 10%
12,C/C(=N\NC(=O)OC(C)(C)C)c1ccc(-n2ccnc2)cc1,inactive: 8.63%
13,COc1ccc(/C=N/NS(=O)(=O)c2ccc(NC(C)=O)cc2)cc1,inactive: 28.9%
14,Cc1cc(C)c(NC(=O)COC(=O)CCc2ccc(S(=O)(=O)N3CCCCC3)cc2)c(C)c1,inactive: -3.28%
15,O=C(Nc1ccc(N2CCOCC2)cc1)C1(c2ccc(Cl)cc2)CCC1,inactive: 2%
16,O=C(COC(=O)C12CC3CC(CC(Br)(C3)C1)C2)Nc1cccc(S(=O)(=O)N2CCOCC2)c1,inactive: 7.62%
17,O=C(Nc1ccc(Cl)c(S(=O)(=O)N2CCOCC2)c1)C1=NN(c2ccccc2)C(=O)CC1,inactive: -6.8%
18,COc1ccc(C(=O)OCc2nc(N)nc(Nc3ccccc3C)n2)cc1OC,inactive: -4.91%
19,COc1ccc(C(=O)Oc2ccc3ccc(=O)oc3c2)cc1OC,inactive: -8.69%
20,Cc1cccc(NC(=S)N2CCC(NC(=O)c3ccco3)CC2)c1,inactive: 4.55%
21,Cn1cnnc1SCC(=O)c1ccc(O)c(O)c1,inactive: 2.22%
22,CCCCn1c(N)c(S(=O)(=O)c2ccc(C)cc2)c2nc3ccccc3nc21,inactive: 9.29%
23,CC(C)(C)c1ccc(C(=S)N2CCN(c3ccccc3)CC2)cc1,inactive: 36.5%
24,O=C(Nc1nnc(Cc2ccc(Cl)cc2)s1)C1CCCO1 (stereo not given),inactive: 2.18%
25,CCOc1ccc(S(=O)(=O)N(CC)CC(=O)NCc2ccncc2)cc1C,inactive: -0.498%
26,Cc1cnc(NC(=O)c2cc3ccccc3o2)s1,inactive: 6.77%
27,Cc1cccc(NC(=O)C2CCCN(S(=O)(=O)c3cccs3)C2)c1C (stereo not given),inactive: 5.11%

row,Structure (SMILES),growth rescue (activation)
1,O=C(Nc1ccc2c(c1)OCO2)C1CCCN1C(=O)Nc1cccc(F)c1 (stereo not given),inactive: 27.5%
2,O=C(Nc1ccc(C(=O)O)cc1)/C(=C\c1ccco1)NC(=O)c1ccco1,inactive: -8.39%
3,CC(C)(C)OC(=O)NNC(=O)c1cccs1,inactive: -3.54%
4,O=C(Cc1ccc(F)cc1)N1CCC(N2CCC(C(=O)N3CCOCC3)CC2)CC1,inactive: -11%
5,Cc1nc2ccc(Br)cc2c(-c2ccccc2)c1C(=O)O,inactive: 16.4%
6,C=CCn1c(C)cc(C(=O)COC(=O)c2n[nH]c(=O)c3ccccc23)c1C,inactive: 1.37%
7,CCCNC(=O)C1(C)CCCN(Cc2ccc3ccccc3c2)C1 (stereo not given),inactive: 9.74%
8,CCS(=O)(=O)N1CCN(S(=O)(=O)c2ccc(S(=O)(=O)NC3CC3)cc2)CC1,inactive: 4.87%
9,CCN1C(=O)Cc2cc(S(=O)(=O)NCCc3ccccc3)ccc21,inactive: 14.6%
10,CC(C)(C)NC(=O)CSc1nc(N)cc(=O)[nH]1,inactive: 11.1%
11,Cn1c(CCC(=O)OCC(=O)NCC(F)(F)F)nc(=O)c2ccccc21,inactive: 2.49%
12,CC(C)OP(=O)(OC(C)C)C(O)c1cccc([N+](=O)[O-])c1 (stereo not given),inactive: 1.09%
13,Cc1c(S(=O)(=O)N2CCCC(C(=O)O)C2)cnn1C (stereo not given),inactive: -6.7%
14,CC(=O)c1ccc(NC(=S)NCCc2ccccn2)cc1,inactive: 9.58%
15,Cc1ccccc1-n1c(SCC(=O)NCC2CCCO2)nnc1-c1ccncc1 (stereo not given),inactive: 10.7%
16,O=C(Nc1ccc(S(=O)(=O)N2CCOCC2)cc1)c1ccc2c(c1)OCO2,inactive: 11.7%
17,COc1ccc(CN(C)C(=O)COC(=O)c2cnc(Cl)c(Cl)c2)cc1,inactive: 16.4%
18,CC(C)(C)NC(=S)NNC(=O)[C@H]1C[C@@H]1c1ccccc1,inactive: -8.55%
19,CC1(C)OC2CC3C4CC(F)C5=CC(=O)C=CC5(C)C4(F)C(O)CC3(C)C2(C(=O)CO)O1 (stereo not given),inactive: 3.9%
20,O=C(C[n+]1cccc(NC(=O)c2ccccc2)c1)c1cccc([N+](=O)[O-])c1,inactive: -3.54%
21,C=CCn1cccc(C(=O)Nc2ccc(OC)cc2)c1=O,inactive: 2.48%
22,COCC1CCCN(Cc2cn(-c3ccccc3)nc2-c2ccc3c(c2)OCO3)C1 (stereo not given),inactive: -3.25%
23,CCOc1ccccc1CN1CCN(Cc2ccon2)CC1CCO (stereo not given),inactive: 3.11%
24,Cc1nnc(N/N=C/c2ccc(O)c([N+](=O)[O-])c2)[nH]c1=O,inactive: 6.62%
25,CC(C)NC(=O)CC(=O)N/N=C/c1c(F)cccc1Cl,inactive: 11.4%
26,COc1ccc(CCN2CC(C(=O)N3CCC(OC)CC3)CCC2=O)cc1 (stereo not given),inactive: 11.6%
27,CCc1nc2ccc(C(=O)Nc3ccc(NC(C)=O)cc3)cn2c1N(C)CCCc1ccccc1,inactive: -1.36%

row,Structure (SMILES),growth rescue (activation)
1,COc1ccc(S(=O)(=O)N2CCN(C(=O)NCc3ccc(OC)c(OC)c3)CC2)cc1,inactive: 5.2%
2,COc1ccc(C2C(C#N)=C(N)OC(C(C)(C)C)=C2C#N)cc1OC (stereo not given),inactive: -21.2%
3,Cc1cccn2c(CNCC3(c4ccccc4)CCCC3)c(C(=O)N3CCOCC3)nc12,inactive: -1.49%
4,C=CCOn1c(=O)c(-c2ccc(Br)cc2)[n+]([O-])c2ccccc21,inactive: -7.89%
5,CCn1cc(C(=O)NCCCN2CCCC(C)C2)c(=O)c2cc(S(=O)(=O)N3CCc4ccccc4C3)ccc21 (stereo not given),inactive: 11.9%
6,CCOC(=O)c1ccc(N/C=C/C(=O)C(C)(C)C)cc1,inactive: -5.26%
7,CCOc1ccc(Cl)cc1S(=O)(=O)N1CCC(C(=O)NCC2CCCO2)CC1 (stereo not given),inactive: -22.7%
8,COCCN1Cc2cccc(C(=O)NCCCN3CCCC3=O)c2C1=O,inactive: 16%
9,C[C@H](NC(=O)c1ccco1)C(=O)NNC(=O)c1ccc(F)cc1,inactive: -7.56%
10,CC(=O)Nc1ccc(NC(=O)CC(C)n2ccnc2)cc1 (stereo not given),inactive: -8.64%
11,CC(C)CCNC(=O)c1ccc2c(SCC(=O)O)c3c(nc2c1)CCC3,inactive: 5.96%
12,O=C(O)c1cccc(N2C(=O)CSC2=S)c1,inactive: 28.7%
13,C=CCNC(=S)N/N=C/c1ccc(-c2ccc(Br)cc2)o1,inactive: 15.8%
14,Cc1ccc(S(=O)(=O)N(CC(=O)NN=C2CCN(C)CC2)c2ccc(F)cc2)cc1,inactive: 3.33%
15,C=CCOc1ccc(C2NC(=S)NC3=C2CCc2ccccc23)cc1 (stereo not given),inactive: 31.1%
16,O=C(Nc1ncc(Cc2ccc(C(F)(F)F)cc2)s1)c1ccc(-c2cccc([N+](=O)[O-])c2)o1,inactive: 26.6%
17,COc1ccc(S(=O)(=O)NCc2cccnc2)cc1C(=O)NC1CCCCC1,inactive: 9.83%
18,COC(=O)Nc1ccc2c(c1)N(C(=O)CCN1CCN3CCCC3C1)c1ccccc1CC2 (stereo not given),inactive: -7.33%
19,O=C(NNC(=S)NCc1ccco1)c1cccs1,inactive: 18%
20,O=C(CSc1nc(O)cc(=O)[nH]1)N1c2ccccc2CCc2ccccc21,inactive: 28.6%
21,Cc1cc(=O)c(C(=O)O)nn1-c1cccc(C(F)(F)F)c1,inactive: 7.54%
22,O=C(NCCc1nc2ccccc2[nH]1)c1ccc(Cl)c([N+](=O)[O-])c1,inactive: 5.23%
23,N#CCCN(CCC#N)C(=O)C1c2ccccc2Oc2ccccc21,inactive: 0.341%
24,CC(C)N=C1NN=C(c2ccc(Cl)c(Cl)c2)CS1,inactive: 10.3%
